Read counts are not given, so values of variants with three or more changes are uncertain.
B1: LINE1-mini (parent)
chain: GGCAGAGCUCAACACAGCGUGGCAAAGUGGCUGUGGCUAGACUGCC

Variants of: B1
Assay: self-cleavage, relative activity (ratio to wild type); higher = more cleavage; in vitro, sequencing; the parent is a self-cleaving ribozyme

Row | Variant | self-cleavage
1 | GGCAGAGCUCAACACAGAGCGUCAAAGUGGCUGUGGCUAGACUGCC | 0.57
2 | GGCAGACCUCCACACACCGAGGCAAAGUGUCCGUGGCUAGACGGCC | 0
3 | GGCCGAGCUCAACACAGCGCGACAAGGUGGCUGUGGCUAGACUGCC | 0.01
4 | GGCAGAGUUCAACACAGCGGGGGAAAGUGGCUGUGGCUAUACUGCC | 0.41
5 | GGCAGAGGGCAACACAGCGUGGCAAAAUGGCUGUGGCUAGACUGCC | 0.12
6 | GGCAAAGCUCAACACAACGUGGCAAAGUGGCUGUGGCUAGAUUGCC | 0.02
7 | GGCAGAUCUCAACAUAGCGUAGCAAAGUGGCUGUGGCUCGACCGCC | 0.19
8 | GGCGGGUCUCAACACAGCGUGGCAAAGUGGCUGUGGCUAGACUGCC | 0.01
9 | GGCAGAGCUCAACACAGCAGGGCAAAGUGGCUGUGGCUAAACUGCC | 0.11
10 | GGCAGAGCUCAACACAGCGUGGCAGGGUGGCUUUGGCUAGACUGCC | 0.18
11 | GGCAAAGCUCAACACAGAGUGGUAAAGUGGCUGUGGCUAGACUGCG | 0.03
12 | CGGGGAUCUCAACACCGCGUGGCAAAGUGGUUGUGGCUAGACUGCC | 0.1
13 | GGCAGAGCUCACCACAGCGUGGCAAAGUGGCUGCGGCUCGACUGCU | 0
14 | GGCAGAGCUCAACACAGCCUGGCAAAGUCCCUGAGGCUAGACUGCC | 0.04
15 | GGCAGAGCUUAACACAGCUCGCCAAAGUGGCUGUGGCUAGACUGCC | 0.06
16 | GACAGAGCUCAACAAAGCAUGGCAAAGUGGCUGAGGCUAGACUGCC | 0.1
17 | GGUGGAGCUCAACACAGGGUGUCAAAGUGGCUGUGCCUAGACUGCC | 0.03
18 | GGCAGAGCUAACCACAGCGAGGCAAAAUGGCUGUGGCUAGACUGCC | 0.04
19 | CGGAGAGCUCAACACAGCUUGGCAAAGUUGAUGUGGCUAGACUGCC | 0.05
20 | GGCAGAACUCAACACAGCGUGGCAAAGUGGCUUCGGCUAGACCGCC | 0.07
21 | GGCUCAGCUCAAGACAGCGCGGUAAAGUGGCUGUGGCUAGACUGCC | 0.02
22 | GGCAGAGCUCAACACAGUUUGUACAAGUGGCUGUGGCUAGACGGCC | 0
23 | CGCAGAGAUCAACACAGUGUGGCAAAGUGGCUGUGGCUAGACUGCC | 0

Row | Variant | self-cleavage
24 | GGCAUAGCUCAACACAGCGCCGCAAAGUGGCUGUGGCUAGACUGCC | 0.04
25 | GGCAGAGCUAAACACAGCGUGGCAAAGUGUCUGUCGCUAGACUGCU | 0.03
26 | GGCAGAGCUCAACUCAGCGUGGAAAAAUGGCUGUGGCUAGACUGCC | 2.92
27 | GGAAGAGCUCACCACAACGUGGUAAAGUGGCUGUGGCUAGACUGCC | 0.02
28 | GGCAGAGCUGAACACAGCGUGGCAAUGUGGCUGUGACUAGAUUGCC | 0.01
29 | GGCAGAGCUCAACACAGCGUAGCAAAAUGGCUGUGUCUAGACUGCC | 0.2
30 | GGCAGAGCGCAACAUAGCGUGGCAAAGUGGCUGUGGCUAAACUGCC | 0.19
31 | GGUAGAGCUCAACACAGCGCGGCAAAGUGGCUGUGGCUAGACUGGC | 0.27
32 | GGCAAAGCUCAACUCAGCGUGGCAAAGUAGCUGUGGCUAGACUGCC | 0.1
33 | GGCAGAGCUCAACACAACGCGGCAAAGUGGCUGUGGCUAGACUGCG | 0.02
34 | GGCAGAUCUCAACACAGUGUGGCAAAGUGACUGUGGCUAGACUGCC | 0.08
35 | GGCAGAGCUCAACACUGCGAGGUAAAGUGGCUGUGGCUAGACUGCC | 0.07
36 | GGCAGAGCUCAACAUGGCGUGUGAAAGUUGCUGUGGCAAGACUGCC | 0.14
37 | GGCAGAUCUCAACACUGCGUGGCAAAGUUGCUGUGGCUAGACUGCG | 0.04
38 | GGCAGAUCUAAAUAUAUAAUGGCAAAGUGGCUGUGGCUAGACUGCC | 0.05
39 | GGCAGAGCUCAACACAGCAUGGCAAAGUGGCUGUGUCUACACUGCC | 0.1
40 | GGCAGAGCUCAACUCAGCGUUGCAAAGUGGAUGUGUCUACACUGCC | 0.06
41 | GGCCGACCUUAACACAGUGUCGCAAAGUGACUGUGGCUACACUGCC | 0.05
42 | GGCAGAGCUCAACACAGCAUGGCAAAGUGGGUGUGGCUAGCCUGCC | 0.02
43 | GGCCGAGCUCAACACAGGGUGGCAAGGUGGCUGCGGCUAGACUGCC | 0.04
44 | GGCAGAGCUCAACACCGCGUGGCAUAGUGGCUGUGGUUAGACUGCC | 0.15
45 | GGCCGAGCUAAAUCAAGCGUGGCAAAGUGGCUGAGGCUAGACUGCC | 0.06
46 | GGCAUGGCUCAACUCAGCGUGGCAAUGUGGCUGUGGCUAGACUGCC | 0.03

Row | Variant | self-cleavage
47 | GGCAGAGCUCAACACAACGAGGCAAAAUGGCUGUGGCUAGACUGCC | 0.49
48 | GGCAGCGCUCAGCACAGCGUGGCAAAGUGGCUGUGGCGAGACUGCC | 0.14
49 | GGCUGAGCUCAACACAGCGUGACAUAGUGGCUGUGGCUAGACUGCC | 0.14
50 | GGCAGAGCUCAACACAGCGUGGCAAGGUGGGUUUGGCUAGACUGAC | 0.09
51 | GGCAGAGCUAAACACAGCGUGGCAAAGUGGCUCGGGCUAGACUGCU | 0.02
52 | GGCGGAGCUAAACACAGCGUGGCACAGAGGCUGUGGCUAGACUGCA | 0.01
53 | GGCAUACCUCAACACAGUGUGGCAAAGUGGCGGUGGCUGGACUGCC | 0
54 | GGCACAGCUAAACGCAGCGUGGCAAAGUGGCUGUGGCUAGACCGCC | 0.03
55 | GGCAAAGCUCAAUACAGCGUGGCAAAGUGGCUGUAGCAAGACUGCC | 0.07
56 | GGCAGUGCUCAACACAGCGUGGCAAAGUGGCUGUGACUAGACAGCC | 0
57 | GGCAGAGCUCAACACAACGUGUCAAGGUGGCUGUGGCUAGACUGCC | 0.04
58 | GGCGGCACUCAACACAGCGUGGAAAAGUGGCUGUGGCUAGAAGGCC | 0.25
59 | GGCAGAGCUCACCACUGCGUGGCCAAGUGGCUGUGGCUAGACUACC | 0
60 | GGCGGAGCACAACACGGCGUGGCAAAGUUGCUGUGGCUAGACUGCC | 0.13
61 | GGCAGAAAUCAAUACAGCGUAGCAAAGUGUCUGUGGUUAGACUGCC | 0.18
62 | GGCAGAGCUCAACACAGCGUUGCAUAGUGGCUGUGGCUACACUGUC | 0.33
63 | GUCAAAGCUCAACACAGCGUGGCAAAGUGGCUGUGGCCAGACUGAC | 0
64 | UGCAAAGCUCAUGACAGCGUGGCAAAGUGGCUCUGGCUAUACUGCC | 0.12
65 | GGCAGAGCUCAACACAGAAUGGCAAAGUGGCUCUGGCUAGACUGCC | 0.02
66 | GGCAGAGCUCAAUACAGCAUGGCAAAGUGACUCUGGCUAGACUGCC | 0.07
67 | CGCAGAGCCCAACACAGCGUGGCAAAGUGGCUGUGGCUAGACAGCC | 0.01
68 | GGCUGAGCUCAAAACAGCGUGGCAAAGUGGCUGGGGCUAGACUGCC | 0.02
69 | GCCAGAGCUCAACACAGCGUGGCAAACUGGCUGUAGCUAGACUGCC | 0.03

Row | Variant | self-cleavage
70 | GGCAGAGCUCUAGACAGCGCGGCUAAGUGCCUGUGGCUAGACUGCC | 0.01
71 | GGCAGAUCCCAACACAGCGUGGCAAAGUGGCUGUGCAUGGACUGCC | 0
72 | GGCAGAGCUUAACACAGCGUGGCAAAGUGGCUGUGGCUAGGAUGCC | 0.03
73 | GGCAGAGCUCAACAUAGCGCGGUAAAGUGGCUGUGGCUAGACUGGC | 0.04
74 | GGCAGAUCCCGACACAGCGUGGCAAAGUGGCUGUGGCUAGACUGCC | 0.01
75 | GGCAGAGCUCAACCCAGCGUGGCAAAGAGGCUGUUGCUAGACUGCC | 0.03
76 | GGCAUAGCUCAACAAAGCGUGGCAACGUGGUUGUGGCUAGAGUGCC | 0.02
77 | GGCAGAGCUCAUCUCAGCGUGGAAAAGUGGCUGUGGCUAGACUGCC | 2.89
78 | GGGAGAGAUCAACAGAGCGUGGCAAAGUGGCUGAGGCUAGACUGCC | 0.08
79 | GGCAGAGAUCAACACAGCGAGGCAAAUUGGCUGUGGCUAAACUGCC | 0.12
80 | GAUAGAGCUCAACACAGAUUUGCAAAGUGGCUGUGGCUAGCCUGCC | 0.1
81 | GGCAACGCUCAAAACAGCGUGCCAAGGUGGCUGUGGCUAGACUGCC | 0.04
82 | GGCGGGGCUCAACACAGCGUGGCAAAGUGGCUAUGGCUAGACUUCC | 0.03
83 | GGCAGAGCUCAACACAGCGUGGUAAAGUGGCUGAGGCUAGGAUGCC | 0.01
84 | GGCAGAGCUCGACACAGCGAGACAAACUGGCUGUGGCUAGACUGCC | 0.01
85 | GGCAGAGCUCAACAAAGCGUGCCAAAGUGGCUGUGGCUAGACCGCC | 0
86 | GGCAGAGCGCAACGCAGCGUGCCAAAGUGGCUGUGGCUAGACUGCC | 0.1
87 | GGCAGAGCCCAACACAGUGUGGCAAAGCUGCUGUGGCUAGACUGCC | 0.03
88 | GGCAGAGCUAAACACAGCGUGGCAAAGUCGCUUUAGCUAGAAUGCC | 0
89 | GGCAGGGCUCAACACAGCGUGGCAAAGUGGUUCUGACUGGACUGCC | 0.06
90 | GGCAGAGCUAAGCACAGCGUGGCAAAGUGGCUGUGUCUAGACUGCC | 0.01
91 | CGCAGAGCUCAACACAGGGGGGCAUAGUGGCUGUGGCUAGACUGCC | 0
92 | GGUAGAACUCAACACAGCGUGGCAAGGUGGCUGUGGCUAGACUGCC | 0.21

Row | Variant | self-cleavage
93 | GGCAGAGCUCAACACAGCGUUGCAAAGUGGCAAUGGCUAGACUGUC | 0.04
94 | GGCUGAGCUCAUCACAGCGUGGCAAAGUGGCUGUGGCUAAACUGCC | 0.01
95 | GGCAGAGCUCAACACAGCGUGGUAAAUUGGCGGUGGCUAGACUGCC | 0.1
96 | GGCAGCGAACAACACAGCGUGGCAAAGUGGCUGUGGCUAGACCGCC | 0.05
97 | GGCAGAGCGCAACACAGCGUGGCAAAGUGACUGUGGCUAGACUGCU | 0.06
98 | GGCAUCGGUCAACACAGCGUGGUAAAGUGGCUGUGGCUAGACUGCC | 0.01
99 | GGCAGAGCUCAACACAGCGUGUCAAAGUGGCUAUGGCUAGACAACC | 0.04
100 | GGGAGAGCUCAACACAGCGUCACAAAGUGGCUGUAGAUAGACCGAC | 0.12
101 | GGCAGAGCUCAACCCAGCAUGGCAAAGUGGUUGUGGCUAGACUGCC | 0.03
102 | CGCAGAGCUCAACACAGCGUGGCAAAGUGGCUGGGGCUACACUGCC | 0.01
103 | GGCAGAGAUCAACACAGCGUGGAAAAGUUGCUGUUGCUAGAAUGCC | 0.01
104 | GGCAGCGCUCAAAACAGCGUGGCAAAGUGGCUGUGGCUAGACUACC | 0.04
105 | GGCUCAGCCCAACACAGCGUGGCAAAGUGGCUGUGGCUAGACUGCC | 0.05
106 | AGCAGAGCUCAACACAGAGUGGUAAAGUGGCUGUGGCUAGACUGCC | 2.3
107 | UGCAGAGCGCAACACAGCGUGGCAUAGUGGCUGUGGCAAGACUGCC | 0.01
108 | GGCAGAGCUCAACACAACGUGGCAACGCGACUGUGGCUAGAUUGCC | 0.24
109 | GGCAGAGCUCAACACCGCGUGGCUAAGUGGCUGUGGCGAGACUGAC | 0.05
110 | GGCAUAGCUCAACAGAGCGUGGCAAAGUGGCUGUGGCUAGAGUGCC | 0.04
111 | GACAGAGCUCAACACAGCGUUGCAAUGAGGCUGUGGCUAGACUGCC | 0.19
112 | GGCAGAGUCCAACACAGCGCGGCAAAGUGGCUGUGGCUAGACUGAC | 0.01
